Assay results reported in PubChem BioAssay AID2060332 (Molecular Pharmacology Branch, DTP, NCI, 2025).
Certain results were filed several times, with different values. This list holds those alone. There may be further records. Results that share an entry repeat one measurement (runs, samples, wells, individuals or studies). Signs of the kind (2×) stand for listed records that agree.

System: LG0567-F671-PDC multi-cell spheroid viability
Assay: Anticancer human tumor LG0567-F671-PDC patient-derived lung adenocarcinoma cell line growth inhibition [IpAb]
Details: for viability, T/C: stronger effect = lower value
From the text: Combinatorial screen of targeted agents with ipatasertib and abemaciclib in multi-cell type tumor spheroids
A high-throughput screen of multi-cell type tumor spheroids was designed to identify active combinations of targeted small molecules and ipatasertib or abemaciclib. Complex spheroids include a stromal component modeled by human endothelial cells (HUVEC) and fibroblasts modeled by human mesenchymal stem cells (MSCs). The concentration ranges selected for each drug and investigational agent were based upon clinically achievable concentrations if the clinical Cmax of the agent was known.
Compounds. The drugs and investigational agents: ipatasertib (NSC767898), abemaciclib(NSC768073), selumetinib (NSC741078), trametinib (758246), adavosertib (NSC754352), everolimus (NSC733504), sapanisertib (NSC764658), vemurafenib (NSC761431), venetoclax (NSC766270), copanlisib (NSC809693), apelisib (NSC765974), palbociblib (NSC758247), vemurafenib (NSC761431), dabrafenib (NSC764134), ravoxertinib (NSC781343), BMS-387032 (NSC767048), sotorasib (NSC818433), talazoparib (NSC767125) and afursertib (NSC778305), were obtained from the National Cancer Institute (NCI) Developmental Therapeutics Program Chemical Repository. The FDA-approved anticancer drug set is available from the NCI Developmental Therapeutics Program. […] The stock solutions were prepared in dimethyl sulfoxide (DMSO, Sigma-Aldrich, St. Louis, MO, cat. D2650) at 800-fold the tested concentration and stored at -70 degrees C prior to their use. All drugs and investigational agents were tested over a range starting from a high concentration at or near the clinical Cmax and decreasing in half-log increments. If the clinical Cmax for an agent had not been determined, the highest concentration tested was 10 microM.
NCI60 Cell Culture. NCI60 cell lines were obtained from the NCI Developmental Therapeutics Program Tumor Repository. For each lot of cells, the Repository performed Applied Biosystems AmpFLSTR Identifiler testing with PCR amplification to confirm consistency with the published Identifier STR profile for each cell line. Cells were kept in continuous culture for no more than 20 passages. The optimal seeding densities for each of the cell lines at each time point assessed were determined prior to performing the concentration response studies. Briefly, the NCI60 human tumor lines were grown as monolayers in RPMI 1640 medium supplemented with 10% FBS and 2 mmol/L L-glutamine.
An additional 9 lines were from the NCI60 cell line panel including MDA-MB-231 breast carcinoma, MDA-MB-468 breast carcinoma, MCF7 breast carcinoma, Hs578T breast carcinoma, MALME-3M melanoma, SK-MEL-2 melanoma, SK-OV-3 ovarian carcinoma, DU-145 prostate carcinoma, PC-3 prostate carcinoma, all cell lines along with major genetic alterations are listed on Table 2. Pooled donor human umbilical vein endothelial cells (HUVEC, Lonza, cat. CC-2519) and human mesenchymal stem cells (hMSC, Lonza, cat. PT-2501) were purchased from Lonza (Walkersville, MD).
PDMR cell lines were grown in complete medium (DC medium): Dulbecco's modified Eagle's medium (DMEM)/F12 supplemented with 5% fetal bovine serum (FBS), 2 mM L-glutamine, 100 U/mL penicillin and 100 µg/ml streptomycin, 0.4 µg/ml hydrocortisone, 10 ng/ml epidermal growth factor (EGF) recombinant human protein, 24 µg/mL adenine, and 0.1 mg/mL primocin. During culture from frozen stock vials, PDMR cells were cultured in the same medium containing 10 µM Y-27632 (see Table 3). The PDCs were cultured in complete DMEM/F12 media without 10 microM Y-27632 dihydrochloride for at least two passages prior to the screen. The pooled donor HUVEC and hMSC were cultured in endothelial cell growth medium 2 (PromoCell, Heidelberg, Germany, cat. C-22011) and mesenchymal stem cell growth medium 2 (PromoCell, cat. C-28009), respectively. For all experiments, HUVEC and hMSC were used at passages </=5.
[…]
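Note: viability read after 7 days of drug exposure.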
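Throughout, for viability, T/C: 100% = DMSO vehicle control luminescence.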

IC50 (compound alone)	Structure (SMILES)	viability, T/C (compound alone 0.01 µM)	viability, T/C (compound alone 0.0316 µM)	viability, T/C (compound alone 0.1 µM)	viability, T/C (compound alone 0.316 µM)	viability, T/C (compound alone 1 µM)	viability, T/C (compound alone 3.16 µM)
	CCN1CCN(Cc2ccc(Nc3ncc(F)c(-c4cc(F)c5nc(C)n(C(C)C)c5c4)n3)nc2)CC1	94, 91.7, 93.5 (2×), 74.1, 78.9, 72.1, 87.2, 77.4, 89.2, 66.3, 98.8, 86.6%	104, 71.7, 87.2, 73.1, 81.7, 79.9, 73.3 (2×), 67, 69.8, 56.7, 71.4, 68.8%	79.5, 86.5, 67.3, 88.8, 72.5, 69.3, 71.5, 84, 56.4, 63, 53.8, 92.9, 57.2%	64.4, 77.6, 58.1, 59.7, 52.4, 54.9, 64.2, 70.7, 62.9, 57.6, 49.9, 71.6, 54.3%	54.6, 63.1, 65.2, 71.1, 73.9, 52.7, 66, 67.6, 53.1, 73.5, 63.9, 95.1, 63%	
	CC(C)NCC(C(=O)N1CCN(c2ncnc3c2C(C)CC3O)CC1)c1ccc(Cl)cc1 (centres undefined)			84.4, 90.7, 95, 117, 108 (2×), 66.7, 87, 96, 87.9, 81.4, 90.1, 72.4%		62.6, 78.6, 87.8, 70, 76.2, 70.2, 74.9, 77.3, 71.8, 65.5, 74.8, 71, 83.4%	65, 58.1, 64.7, 88.7, 85.4, 56.2, 60.8, 102, 81, 72.5, 82.9, 66.3, 65.1%
> 10 µM and 360 nM	C=CCn1c(=O)c2cnc(Nc3ccc(N4CCN(C)CC4)cc3)nc2n1-c1cccc(C(C)(C)O)n1						
